Out of some 370,000 compounds screened, about 500 (0.14%) were called active. Inconclusive means that the source gave no clear call. Such entries were picked first, then a sample of the others. Calls come from the whole dose curve; as a rule, active = well fitted activation curve with a large enough effect; inconclusive = small, poorly fitted or top-dose-only effect; inactive = no such curve, though single readings can be large or run the other way. Potencies of inconclusive entries are left out as doubtful fits.
experiment: qHTS of alpha-syn Inhibitors; settings: Yeast expressing alpha-synuclein, BacTiter-Glo, 24 h; Potency: growth rescue unless noted; growth rescue (activation): at 46.1 µM (top of the series) unless noted; note: nearly all actives have a fitted effect of over 65% in size; for growth rescue (activation): % of control where 0% means no effect
Summary of the method: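 Readout is rescue of growth in alpha-synuclein-expressing yeast, so inhibitors of toxicity appear as activators. Growth after 24 hr at 30 deg C in galactose medium is quantified by luminescence.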
Potency is the fitted concentration of half-maximal effect; tags give direction and shape of the fitted curve.

SMILES | Potency | growth rescue (activation)
COc1ccc(CNCC(O)(c2ccc(F)cc2)c2ccc(F)cc2)cc1OC | inconclusive [activator, single point] | 
COc1cc2c(=O)n(C)c3ccccc3c2cc1OC | inconclusive [activator, single point] | 
Cc1occc1C(=O)Nc1ccc(S(N)(=O)=O)cc1 | inconclusive [activator, single point] | 
CC1CCN(C(=O)COC(=O)C23CC4CC(CC(O)(C4)C2)C3)CC1 | inconclusive [activator, single point] | 
COc1cccc(CN(C)C(=O)C23CC4CC(CC(C4)C2)C3)c1 | inconclusive [activator, single point] | 
Cc1ccsc1C1Nc2ccc3ncccc3c2C2=C1C(=O)CC(C)(C)C2 (configuration not stated) |  | inactive: 1.94%
COc1ccc(NC(=O)C/C(C)=N/NC(=O)CCc2ccccc2)c(OC)c1 | inconclusive [activator, single point] | 
COc1cccc(CC(=O)Nc2cc(C(F)(F)F)ccc2N2CCCC2)c1 | inconclusive [activator, single point] | 
O=C(O)c1ccc2c(ccc3nn(-c4ccc(/C=C/c5ccc(-n6nc7ccc8cc(C(=O)O)ccc8c7n6)cc5[S+](=O)([O-])[O-])c([S+](=O)([O-])[O-])c4)nc32)c1 |  | inactive: 0.715%
CCCc1cc(CNC(=O)C2CCC(=O)N(Cc3ccccc3OC)C2)on1 (configuration not stated) | inconclusive [activator, single point] | 
Nc1cc2[nH]c(=O)c3ccccc3c2cc1[N+](=O)[O-] | inconclusive [activator, single point] | 
CCOC(=O)c1ccccc1NS(=O)(=O)c1c(C)nc2sccn2c1=O | inconclusive [activator, single point] | 
Cc1ccccc1NC(=S)N(Cc1ccccn1)Cc1ccccc1Cl |  | inactive: 4.36%
O=C1NN=C(c2ccc(Cl)cc2)CC1c1cccc(Br)c1 (configuration not stated) | inconclusive [activator, partial curve] | 
CCCSc1nc2sc3c(c2c(=O)n1-c1cccc(Br)c1)CC(C)(C)OC3 |  | inactive: -13.4%
COC(=O)c1ccc(-c2nc3ccc(C)cc3o2)cc1 |  | inactive: 0.306%
C#Cc1ccc(NC(=O)C2(C)CCN2C(=O)c2cc(C)n(C)n2)cc1 (configuration not stated) | inconclusive [activator, single point] | 
Cc1oc(-c2cccc(Cl)c2)nc1CN1CCC(C(=O)NCCCN2CCCC2=O)CC1 | inconclusive [activator, single point] | 
NC(=S)NN=Cc1nccc2c(C(F)(F)F)cccc12 | inconclusive [activator, single point] | 
O=C(/C=C/c1c(F)cccc1Cl)c1ccc(O)cc1 |  | inconclusive: -47.2% [activator]
CCC(C)NC(=O)C1CCN(S(=O)(=O)c2ccc(OC)cc2)CC1 (configuration not stated) | inconclusive [activator, single point] | 
O=C(Nc1ccc(Cl)c(C(F)(F)F)c1)C1Cc2c(-c3ccc4c(c3)OCO4)ccnc2O1 (configuration not stated) | inconclusive [activator, single point] | 
O=C(NCCC1=CCCCC1)C1CCC(=O)N(Cc2ccc(Cl)cc2)C1 (configuration not stated) |  | inactive: 3.76%

SMILES | Potency | growth rescue (activation)
CCC(CO)Nc1ccn2nc(-c3cccs3)cc2n1 (configuration not stated) |  | inactive: -1.02%
CNC(=O)C[C@H]1C(=O)N(Cc2ccccc2)C[C@@H]1C | inconclusive [activator, single point] | 
O=C(Nc1nc2c(s1)COc1ccccc1-2)c1cccs1 | inconclusive [activator, single point] | 
COCCNC(=O)c1cnn2c(C(F)F)cc(-c3ccc(C)cc3)nc12 |  | inactive: 0.371%
CC1CCN(S(=O)(=O)c2ccc3c(ccn3CCC(=O)N3CCCCC3)c2)CC1 | inconclusive [activator, single point] | 
CCN(CC(=O)Nc1ccc(NC(C)=O)cc1)C(=O)/C=C/c1cn(-c2ccccc2)nc1-c1ccc(C)cc1 |  | inactive: 2.82%
COc1cc(/C=C/C(=O)OCC(=O)Nc2cc(C(F)(F)F)ccc2N2CCOCC2)ccc1O | inconclusive [activator, single point] | 
CC(=O)c1ccc(OCC(=O)OCC(=O)c2ccc(S(=O)(=O)N3CCCCC3)cc2)cc1 | inconclusive [activator, single point] | 
CC1CCCCN1CC(O)COCc1ccc(Cl)cc1 (configuration not stated) | inconclusive [activator, single point] | 
CC(=O)Nc1ccc(CNc2nc3cc(-c4cccc(C(F)(F)F)c4)sc3c(=O)n2C)cc1 |  | inactive: -15.9%
Cc1ccc(CSCCNC(=O)CSCc2ccc([N+](=O)[O-])cc2)cc1 |  | inactive: 4.61%
Cc1cc(C)c(O)c(CN(C)Cc2cc(Cl)cc(Cl)c2O)c1 | inconclusive [activator, single point] | 
CCC(C)c1ccc(NC(=S)NCCn2cc(Br)cn2)cc1 (configuration not stated) |  | inactive: -0.708%
CCCCC(=O)NC(=S)NNC(=O)CCc1ccccc1 | inconclusive [activator, single point] | 
O=C(COC(=O)C1CCC1)Nc1cc(S(=O)(=O)N2CCOCC2)ccc1Cl | inconclusive [activator, single point] | 
COc1ccc(C)cc1NC(=O)CN1CCCN(S(=O)(=O)c2ccc(Br)cc2)CC1 |  | inactive: 8.37%
Cc1ccc(N(C)S(=O)(=O)c2ccc(-c3cnc(C4CC4)o3)cc2)cc1 | inconclusive [activator, single point] | 
COc1cc(C(O)c2nc(-c3cccc(C#N)c3)cs2)ccc1F (configuration not stated) | inconclusive [activator, single point] | 
Cc1cn([C@H]2C[C@H](O)[C@@H](CNCc3ccccc3OCCCN3CCOCC3)O2)c(=O)[nH]c1=O | inconclusive [activator, single point] | 
COc1cccc(C(=O)Nc2nc(-c3ccccc3)c(-c3ccccc3)o2)c1 | inconclusive [activator, single point] | 
O=C(NCCCNC(=O)c1c(F)cccc1F)c1c(F)cccc1F |  | inactive: -5.96%
COc1ccc(CNC(=O)C2COc3ccccc3O2)c(OC)c1 (configuration not stated) | inconclusive [activator, partial curve] | 
Oc1ccccc1/C=N/Nc1ncc(Br)cn1 | inconclusive [activator, single point] | 

SMILES | Potency | growth rescue (activation)
COC(C(=O)Nc1ccc(S(=O)(=O)Nc2cccc3ccccc23)cc1)c1ccccc1 (configuration not stated) | inconclusive [activator, single point] | 
Cc1cc(C)n(-c2ccc(C(=O)OCn3nnc4ccccc4c3=O)cc2)n1 | inconclusive [activator, single point] | 
COc1ccc(NC(=O)/C(Cl)=C(/Cl)S(=O)Cc2ccccc2Cl)cn1 (configuration not stated) |  | inconclusive: -82.6% [activator]
O=C1c2ccccc2CCC12N=NCC2c1ccc(Cl)cc1 (configuration not stated) |  | inactive: 14.2%
CC(C)C[C@@H]1O[C@H](CCc2ccccc2)Cc2[nH][nH]c(=O)c21 | inconclusive [activator, single point] | 
CCCCOC(=O)C1CN(c2ccccc2)N=C1C(=O)OCC (configuration not stated) | inconclusive [activator, single point] | 
Cc1cc(C(=O)CSc2cccc[n+]2[O-])c(C)n1-c1ccccc1 | inconclusive [activator, full curve] | 
CC(=O)N1c2ccc(S(=O)(=O)NCC3CCC(C(=O)NC4CCC(C)CC4)CC3)cc2CC1C (configuration not stated) | inconclusive [activator, single point] | 
Cc1ccc(S(=O)(=O)Nc2cc(Br)cc3cccnc23)cc1 | inconclusive [activator, single point] | 
C=CCN(c1ccccc1)S(=O)(=O)c1ccc2[nH]cc(C(=O)NCCOC)c(=O)c2c1 | inconclusive [activator, single point] | 
COc1ccccc1[C@H]1C(c2ccccc2)=NN(c2ccccc2)[C@@H]1CO | inconclusive [activator, single point] | 
O=C(Cn1nc(Cl)nc1Cl)c1ccc(F)cc1 |  | inactive: 1.61%
COCCN=c1scc(-c2cc(OC)ccc2OC)n1/N=C/c1c[nH]c2ccccc12 | inconclusive [activator, single point] | 
CC(Oc1ccc(Br)cc1)C(=O)Nc1nc(-c2ccccn2)cs1 (configuration not stated) | inconclusive [activator, single point] | 
Brc1ccc2c(c1)C(c1cccnc1)=NNC(c1cccs1)=N2 | inconclusive [activator, partial curve] | 
O=C(CN1CCN(S(=O)(=O)c2ccc(Cl)s2)CC1)NCc1ccc(Cl)cc1 | inconclusive [activator, single point] | 
COc1cccc(NC(=O)c2oc3ccccc3c2NC(C)=O)c1 |  | inactive: -0.848%
COC(=O)[C@]12CCCCC=C1N(Cc1ccc(Cl)cc1Cl)C(=O)[C@H](CC(=O)N1CCCC1)C2 | inconclusive [activator, single point] | 
CC(=O)NCCNc1nc(NCc2cccs2)nc2ccsc12 | inconclusive [activator, single point] | 
Cc1ccc(S(=O)(=O)N2CCC(NC(=O)c3cccc(F)c3)CC2)cc1 |  | inactive: -8.66%
Cc1ccc(C)c(N2CCN(C(=O)CN3CCSc4ccccc43)CC2)c1 | inconclusive [activator, single point] | 

— PubChem BioAssay AID652106 (National Center for Advancing Translational Sciences (NCATS), 2013)
